Binding data for 8 molecules are collected here from publication PMC3738564.

The chains behind the UniProt entries cited, without tags or fusion partners.
UniProt P11531: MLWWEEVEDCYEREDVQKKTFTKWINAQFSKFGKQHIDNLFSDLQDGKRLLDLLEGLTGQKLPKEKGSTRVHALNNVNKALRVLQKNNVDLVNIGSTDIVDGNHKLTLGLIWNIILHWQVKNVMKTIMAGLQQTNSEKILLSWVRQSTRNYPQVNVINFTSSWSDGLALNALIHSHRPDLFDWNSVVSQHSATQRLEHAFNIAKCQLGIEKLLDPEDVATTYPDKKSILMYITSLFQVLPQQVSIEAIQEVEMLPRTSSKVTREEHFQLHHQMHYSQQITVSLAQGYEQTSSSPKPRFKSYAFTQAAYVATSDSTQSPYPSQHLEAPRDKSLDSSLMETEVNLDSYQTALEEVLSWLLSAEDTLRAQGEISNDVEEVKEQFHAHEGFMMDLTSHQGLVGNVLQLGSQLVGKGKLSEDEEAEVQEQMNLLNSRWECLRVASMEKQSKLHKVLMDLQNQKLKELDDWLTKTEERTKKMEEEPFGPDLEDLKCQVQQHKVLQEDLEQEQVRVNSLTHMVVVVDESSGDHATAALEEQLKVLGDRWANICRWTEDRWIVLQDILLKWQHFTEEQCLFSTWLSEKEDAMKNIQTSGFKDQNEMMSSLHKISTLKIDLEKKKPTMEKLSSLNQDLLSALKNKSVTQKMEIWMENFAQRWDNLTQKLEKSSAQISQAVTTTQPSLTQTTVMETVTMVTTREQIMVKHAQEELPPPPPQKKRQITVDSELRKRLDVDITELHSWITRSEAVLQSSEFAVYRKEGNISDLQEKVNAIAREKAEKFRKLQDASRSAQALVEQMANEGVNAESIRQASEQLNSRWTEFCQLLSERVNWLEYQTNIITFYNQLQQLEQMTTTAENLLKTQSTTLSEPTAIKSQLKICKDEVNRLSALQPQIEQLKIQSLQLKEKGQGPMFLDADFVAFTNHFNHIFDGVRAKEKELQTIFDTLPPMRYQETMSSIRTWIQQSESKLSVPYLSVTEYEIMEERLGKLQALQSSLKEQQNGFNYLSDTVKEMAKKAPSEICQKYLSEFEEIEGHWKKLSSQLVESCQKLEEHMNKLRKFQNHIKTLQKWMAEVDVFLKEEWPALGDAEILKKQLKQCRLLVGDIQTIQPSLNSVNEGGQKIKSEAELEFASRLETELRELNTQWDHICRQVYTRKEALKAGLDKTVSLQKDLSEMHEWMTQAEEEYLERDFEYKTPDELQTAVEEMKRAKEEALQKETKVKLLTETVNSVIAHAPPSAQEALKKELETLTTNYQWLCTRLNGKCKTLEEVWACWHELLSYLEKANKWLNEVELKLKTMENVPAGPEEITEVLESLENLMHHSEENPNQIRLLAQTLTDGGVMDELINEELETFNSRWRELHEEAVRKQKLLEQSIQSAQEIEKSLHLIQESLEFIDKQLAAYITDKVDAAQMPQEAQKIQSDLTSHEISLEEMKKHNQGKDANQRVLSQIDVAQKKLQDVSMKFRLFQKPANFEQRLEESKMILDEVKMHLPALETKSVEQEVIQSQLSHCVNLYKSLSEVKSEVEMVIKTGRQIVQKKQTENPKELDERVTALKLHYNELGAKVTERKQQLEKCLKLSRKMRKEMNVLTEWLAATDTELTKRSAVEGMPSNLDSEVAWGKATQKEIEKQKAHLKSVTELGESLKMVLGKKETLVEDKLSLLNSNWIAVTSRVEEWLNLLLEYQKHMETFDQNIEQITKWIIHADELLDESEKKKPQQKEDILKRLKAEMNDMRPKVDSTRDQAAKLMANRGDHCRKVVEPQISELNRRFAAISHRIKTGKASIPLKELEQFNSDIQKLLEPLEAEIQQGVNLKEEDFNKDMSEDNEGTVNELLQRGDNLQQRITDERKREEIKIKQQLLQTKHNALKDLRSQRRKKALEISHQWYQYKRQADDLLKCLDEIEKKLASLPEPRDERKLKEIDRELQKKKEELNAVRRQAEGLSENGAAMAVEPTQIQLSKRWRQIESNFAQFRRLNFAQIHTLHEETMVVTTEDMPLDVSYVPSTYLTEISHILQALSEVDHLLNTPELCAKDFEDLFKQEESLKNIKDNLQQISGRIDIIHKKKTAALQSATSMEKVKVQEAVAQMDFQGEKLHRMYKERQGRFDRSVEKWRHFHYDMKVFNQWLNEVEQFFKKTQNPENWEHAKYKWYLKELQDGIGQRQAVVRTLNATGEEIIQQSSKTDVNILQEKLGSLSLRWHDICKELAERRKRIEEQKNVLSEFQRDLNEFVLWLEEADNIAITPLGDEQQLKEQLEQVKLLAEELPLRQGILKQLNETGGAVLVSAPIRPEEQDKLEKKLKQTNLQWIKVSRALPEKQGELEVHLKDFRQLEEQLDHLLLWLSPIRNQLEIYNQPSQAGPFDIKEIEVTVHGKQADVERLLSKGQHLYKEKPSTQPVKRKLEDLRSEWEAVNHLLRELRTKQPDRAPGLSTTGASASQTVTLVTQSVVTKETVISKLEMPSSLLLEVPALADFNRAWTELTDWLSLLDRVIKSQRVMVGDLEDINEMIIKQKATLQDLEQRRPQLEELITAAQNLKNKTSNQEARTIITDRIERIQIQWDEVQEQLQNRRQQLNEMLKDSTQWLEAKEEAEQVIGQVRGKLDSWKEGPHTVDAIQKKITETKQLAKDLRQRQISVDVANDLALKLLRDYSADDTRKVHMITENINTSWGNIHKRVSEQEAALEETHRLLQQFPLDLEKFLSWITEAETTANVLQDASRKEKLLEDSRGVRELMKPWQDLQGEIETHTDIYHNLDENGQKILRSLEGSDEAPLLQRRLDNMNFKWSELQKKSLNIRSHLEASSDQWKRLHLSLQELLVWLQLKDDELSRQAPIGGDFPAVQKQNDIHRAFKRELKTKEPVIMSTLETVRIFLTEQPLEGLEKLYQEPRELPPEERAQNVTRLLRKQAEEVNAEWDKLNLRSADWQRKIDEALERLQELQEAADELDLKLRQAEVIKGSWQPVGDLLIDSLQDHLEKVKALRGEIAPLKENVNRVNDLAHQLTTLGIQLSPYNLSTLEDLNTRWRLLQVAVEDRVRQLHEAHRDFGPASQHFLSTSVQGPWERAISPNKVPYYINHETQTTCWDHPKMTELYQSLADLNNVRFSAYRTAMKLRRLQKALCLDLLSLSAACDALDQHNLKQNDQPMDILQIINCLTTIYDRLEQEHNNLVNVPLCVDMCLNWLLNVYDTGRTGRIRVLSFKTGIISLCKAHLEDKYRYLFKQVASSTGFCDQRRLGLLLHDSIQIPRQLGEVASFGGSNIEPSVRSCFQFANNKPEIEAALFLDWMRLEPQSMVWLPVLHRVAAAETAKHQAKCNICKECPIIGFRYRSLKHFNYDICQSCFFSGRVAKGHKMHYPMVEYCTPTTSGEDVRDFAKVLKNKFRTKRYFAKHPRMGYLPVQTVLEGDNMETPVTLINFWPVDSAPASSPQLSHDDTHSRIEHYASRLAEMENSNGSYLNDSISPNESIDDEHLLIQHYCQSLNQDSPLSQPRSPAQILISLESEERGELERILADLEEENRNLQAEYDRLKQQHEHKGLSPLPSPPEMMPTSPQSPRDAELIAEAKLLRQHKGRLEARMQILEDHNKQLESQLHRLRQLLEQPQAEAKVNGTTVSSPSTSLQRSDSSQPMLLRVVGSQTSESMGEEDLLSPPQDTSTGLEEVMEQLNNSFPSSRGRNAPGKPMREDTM
UniProt Q8CC27: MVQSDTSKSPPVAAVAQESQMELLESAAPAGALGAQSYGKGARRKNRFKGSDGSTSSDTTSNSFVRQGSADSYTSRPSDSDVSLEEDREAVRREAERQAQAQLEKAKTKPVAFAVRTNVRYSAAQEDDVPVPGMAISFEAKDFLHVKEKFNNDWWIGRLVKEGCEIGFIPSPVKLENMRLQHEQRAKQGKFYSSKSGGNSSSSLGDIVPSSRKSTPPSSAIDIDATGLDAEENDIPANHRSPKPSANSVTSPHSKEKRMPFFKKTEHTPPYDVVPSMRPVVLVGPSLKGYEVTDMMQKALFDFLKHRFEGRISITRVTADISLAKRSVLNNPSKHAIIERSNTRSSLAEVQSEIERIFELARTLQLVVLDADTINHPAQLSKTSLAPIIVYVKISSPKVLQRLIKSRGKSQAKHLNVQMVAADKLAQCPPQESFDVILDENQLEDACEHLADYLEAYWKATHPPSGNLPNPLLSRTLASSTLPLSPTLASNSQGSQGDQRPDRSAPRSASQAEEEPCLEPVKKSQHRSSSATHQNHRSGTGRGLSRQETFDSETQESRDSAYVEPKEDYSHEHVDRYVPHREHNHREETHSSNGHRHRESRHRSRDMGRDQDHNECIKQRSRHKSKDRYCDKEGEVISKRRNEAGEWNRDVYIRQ

The target in test [1] is T1, β-dystroglycan (mouse (endogenous in skeletal muscle)) (UniProt Q62165).
T1 sequence: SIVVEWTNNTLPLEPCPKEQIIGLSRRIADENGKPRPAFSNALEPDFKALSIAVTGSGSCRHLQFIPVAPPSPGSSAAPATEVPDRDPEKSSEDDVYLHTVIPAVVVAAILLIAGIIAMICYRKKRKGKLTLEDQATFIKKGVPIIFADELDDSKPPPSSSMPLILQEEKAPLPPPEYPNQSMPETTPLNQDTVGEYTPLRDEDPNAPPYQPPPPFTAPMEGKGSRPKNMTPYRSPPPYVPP
As to the kind of experiment: co-IP; β-dystroglycan precipitated with MANDAG2 from mdx/Utrn-/- (no dystrophin, no utrophin) mouse quadriceps lysate (1% digitonin, 0.05% NP-40); Western blot. On the technique in general: A western blot detects proteins with antibodies after separation by electrophoresis.

The target of test [2] is T1, β-dystroglycan (mouse (endogenous in skeletal muscle)). Description: co-IP; β-dystroglycan precipitated with MANDAG2 on protein G beads from wild type mouse quadriceps lysate (1% digitonin, 0.05% NP-40; 1 mg protein); Western blot; also done on mdx and mdx/Utrn-/- lysates.
Test [3] has as its target full length (427 kDa) dystrophin (mouse (endogenous in skeletal muscle)) (UniProt P11531). As to the kind of experiment: co-IP; dystrophin precipitated with MANDYS1 on protein G beads from wild type mouse quadriceps lysate (1% digitonin, 0.05% NP-40); Western blot.
For test [4], the target named is β2-regulatory subunit of voltage gated calcium channels (Cavβ2) (mouse (endogenous in skeletal muscle)) (UniProt Q8CC27). As to the kind of experiment: co-IP; reverse immunoprecipitation with an antibody to Cavβ2 from wild type quadriceps lysate (1% digitonin, 0.05% NP-40); control antibody MW8; Western blot.
Test [5] addresses T2, Polymerase I and transcript release factor (Cavin-1) (mouse) (UniProt O54724).
T2 sequence: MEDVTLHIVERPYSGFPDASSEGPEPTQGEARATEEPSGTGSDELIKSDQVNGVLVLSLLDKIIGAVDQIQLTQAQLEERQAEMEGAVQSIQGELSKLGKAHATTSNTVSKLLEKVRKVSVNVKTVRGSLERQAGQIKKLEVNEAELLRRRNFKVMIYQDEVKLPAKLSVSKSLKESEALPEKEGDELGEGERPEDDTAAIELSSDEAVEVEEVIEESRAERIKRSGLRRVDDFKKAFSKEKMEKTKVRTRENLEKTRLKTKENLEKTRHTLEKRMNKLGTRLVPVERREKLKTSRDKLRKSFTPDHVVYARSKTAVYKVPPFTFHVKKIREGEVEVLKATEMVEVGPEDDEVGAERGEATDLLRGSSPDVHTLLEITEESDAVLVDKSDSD
As to the kind of experiment: co-IP; reverse immunoprecipitation with an antibody to Cavin-1 from wild type quadriceps lysate (1% digitonin, 0.05% NP-40); control Rabbit-anti-Goat IgG; Western blot.

The target of test [6] is full length (427 kDa) dystrophin (mouse (endogenous in skeletal muscle)) (UniProt P11531). As to the kind of experiment: co-IP; dystrophin precipitated with a second monoclonal antibody (ab14452 coupled to agarose beads; called DYS1 in the legend) from wild type mouse skeletal muscle in PBS pH 7.5 with 0.5% Triton X-100; 4 °C overnight; Western blot.
The target of test [7] is T3, β-dystroglycan (mouse (endogenous in skeletal muscle)), Q62165.
T3 chain: T1 sequence
Description: co-IP; β-dystroglycan precipitated with MANDAG2 on protein G beads from wild type mouse quadriceps lysate (1% digitonin, 0.05% NP-40; 1 mg protein); Western blot; also done on mdx and mdx/Utrn-/- lysates. Particulars: remark: other sources report otherwise.

For test [8], the target named is T1, β-dystroglycan (mouse (endogenous in skeletal muscle)). Description: co-IP; β-dystroglycan precipitated with MANDAG2 from mdx (dystrophin-deficient) mouse quadriceps lysate (1% digitonin, 0.05% NP-40); Western blot.

Results are given in words; binding and its absence hold for the method and conditions named. Binding seen in cells or lysates may run through a third protein. Some binding calls cover weakened binding; strength is not graded here.

B1: β1-syntrophin (protein, UniProt Q99L88 1-537)
chain: MAVAAAAVAAPAGGGGARAQRSGLLEVLVRDRWHKVLVNLSEDALVLSCEEGAAAYNGIGAATNGSFCRGSGTGHPVPGVAQAPDSPAGVRTAFTDLPEQVPESISNQKRGVKVLKQELGGLGISIKGGKENKMPILISKIFKGLAADQTQALYVGDAILSVNGADLRDATHDEAVQALKRAGKEVLLEVKYMREATPYVKKGSPVSEIGWETPPPESPRLGGGSAEPLSSQSFSFHRDRKSIPLKMCYVTRNMTLADPENRQLEIHSPDAKHTVILRSKDSATAQAWFSAIHSNAGDLLTRVVADIREQLGKTGIAGSREIRHLGWLAEKVPGESEKQWKPALVVLTEKDLLIYDSMPRRKEAWFSPVHSYPLLATRLVHSGPGKGSPQAGMDLSFATRTGTKQGIETHLFRAEISRDLSHWTRSIVQGCHNSAELTAEITTACTYRNQECRLTIHYDNGFSISTEPQDGAFPKTIIQSPYEKLKMSSDDGIRMLYLDFGGKEGEIQLDLHSCPKPIVFIIHSFLSAKITRLGLVA
Take B1: the binding entry in test [1] is on record as “binds weakly”; in test [2], “binds”.

B2: β-dystroglycan (protein, UniProt Q62165 652-893)
chain: T1 sequence
Turning to B2, the binding result in test [3], in test [4], in test [5] and in test [6] was “binds” in each case.

B3: caveolin 3 (protein, UniProt P51637 1-151)
chain: MMTEEHTDLEARIIKDIHCKEIDLVNRDPKNINEDIVKVDFEDVIAEPEGTYSFDGVWKVSFTTFTVSKYWCYRLLSTLLGVPLALLWGFLFACISFCHIWAVVPCIKSYLIEIQCISHIYSLCIRTFCNPLFAALGQVCSNIKVVLRREG
With B3, the binding result in test [4] is on record as “no binding”; in test [5], “binds”.

B4: β-sarcoglycan, P82349 1-320 (protein)
chain: MAAAAAAAAATEQQGSNGPVKKSMREKAVERRNVNKEHNSNFKAGYIPIDEDRLHKTGLRGRKGNLAICVIVLLFILAVINLLITLVIWAVIRIGPNGCDSMEFHESGLLRFKQVSDMGVIHPLYKSTVGGRRNENLVITGNNQPIVFQQGTTKLSVEKNKTSITSDIGMQFFDPRTHNILFSTDYETHEFHLPSGVKSLNVQKASTERITSNATSDLNIKVDGRAIVRGNEGVFIMGKTIEFHMGGDVELKAENSIILNGTVMVSPTRLPSSSSGDQSGSGDWVRYKLCMCADGTLFKVQVTGHNMGCQVSDNPCGNTH
In the case of B4, the binding result in test [7] is recorded as “binds”.

B5: β-sarcoglycan (protein, UniProt P82349 1-320)
chain: B4 chain
In the case of B5, the binding result in test [8] is recorded as “no binding (condition: in mdx muscle (no dystrophin))”; in test [1], “binds weakly”.

B6: α-dystroglycan (protein, UniProt Q62165 28-651)
chain: HWPSEPSEAVRDWKNQLEASMHSVLSDFQEAVPTVVGIPDGTAVVGRSFRVSIPTDLIASSGEIIKVSAAGKEALPSWLHWDPHSHILEGLPLDTDKGVHYISVSAARLGANGSHVPQTSSVFSIEVYPEDHNEPQSVRAASSDPGEVVPSACAADEPVTVLTVILDADLTKMTPKQRIDLLNRMQSFSEVELHNMKLVPVVNNRLFDMSAFMAGPGNAKKVVENGALLSWKLGCSLNQNSVPDIRGVETPAREGAMSAQLGYPVVGWHIANKKPTLPKRLRRQIHATPTPVTAIGPPTTAIQEPPSRIVPTPTSPAIAPPTETMAPPVRDPVPGKPTVTIRTRGAIIQTPTLGPIQPTRVSEAGTTVPGQIRPTLTIPGYVEPTAVITPPTTTTKKPRVSTPKPATPSTDSSTTTTRRPTKKPRTPRPVPRVTTKAPITRLETASPPTRIRTTTSGVPRGGEPNQRPELKNHIDRVDAWVGTYFEVKIPSDTFYDNEDTTTDKLKLTLKLREQQLVGEKSWVQFNSNSQLMYGLPDSSHVGKHEYFMHATDKGGLSAVDAFEIHVHKRPQGDKAPARFKARLAGDPAPVVNDIHKKIALVKKLAFAFGDRNCSSITLQNITRG
modifications: highly glycosylated; carbohydrate moieties bound by wheat germ agglutinin
Consider B6, for which the binding entry in test [3] and in test [6] was “binds” in each case.

B7: α-dystroglycan, Q62165 28-651 (protein)
chain: B6 chain
modifications: here or on the partner: highly glycosylated; carbohydrate moieties bound by wheat germ agglutinin
On to B7, for which the binding result in test [7] is reported as “binds”.

B8: α1-syntrophin (protein, UniProt Q61234 1-503)
chain: MASGRRAPRTGLLELRCGAGSGAGGERWQRVLLSLAEDALTVSPADGEPGPEPEPAQLNGAAEPGAAPPQLPEALLLQRRRVTVRKADAGGLGISIKGGRENKMPILISKIFKGLAADQTEALFVGDAILSVNGEDLSSATHDEAVQALKKTGKEVVLEVKYMKEVSPYFKNSAGGTSVGWDSPPASPLQRQPSSPGPQPRNLSEAKHVSLKMAYVSRRCTPTDPEPRYLEICAADGQDAVFLRAKDEASARSWAGAIQAQIGTFIPWVKDELQALLTATGTAGSQDIKQIGWLTEQLPSGGTAPTLALLTEKELLFYCSLPQSREALSRPTRTAPLIATSSAHRLVHSGPSKGSVPYDAELSFALRTGTRHGVDTHLFSVESPQELAAWTRQLVDGCHRAAEGIQEVSTACTWNGRPCSLSVHIDKGFTLWAAEPGAARAMLLRQPFEKLQMSSDDGTSLLFLDFGGAEGEIQLDLHSCPKTMVFIIHSFLSAKVTRLGLLA
Turning to B8, the values for the binding entry in test [1] and in test [2] were “binds weakly” and “binds”, respectively.
